The subject of one experiment is Phytophthora infestans. The experiment is described as follows: whole plant or invertebrate. The settings on record: in Solanum lycopersicum, 168 h, read-out: inhibition of the development of the mould. The method, then:
Treatment of tomato mildew (Phytophthora infestans)
Tomato (Lycopersicum esculentum) plants, of the Marmande variety, are cultivated in pots. When these plants are a month old (5 to 6 leaf stage, height 12 to 15 cm), they are treated by spraying with a suspension or aqueous solution of the material to be tested, which is at the desired concentration and contains a surfactant which is a condensate of sorbitan monooleate with 20 molecules of ethylene oxide. This surfactant is at a concentration equal to half the concentration of the active material. Each tomato plant receives about 5 ml of the solution or dispersion. The treatment is carried out on two plants for each concentration of active material to be tested. Plants used as controls are treated with a solution which contains no active material, but contains the same surfactant at an identical concentration.
After drying for 24 hours, each plant is infected by spraying with an aqueous suspension of spores of Phytophthora infestans, which is responsible for tomato mildew, at a rate of about 5 ml/plant (that is about 50,000 spores per plant).
After this infection, the tomato plants are incubated for one day at about 15° C. in a saturated atmosphere, then for five days at about 17° C. and 70% to 90% relative humidity.
Seven days after infection, the results obtained in the case of plants treated with the active material to be tested are compared with those obtained in the case of plants used as controls.

In a further experiment the test system is Plasmopara viticola. In words: Example B2: treatment of vine mildew (Plasmopara viticola) on vine cuttings. The conditions noted are these: 192 h, 330 ppm (0.33 g/l), vine cuttings, 8 days after infection, read-out: inhibition of the development of the mould.

The inhibition is the share of the control response that was lost under treatment. In the case of `COc1ccc(-c2nc(-c3ccccc3)ccc2C(=O)N(C)CCOC(C)=O)cc1OC` [Compound 396], the inhibition at 1000 ppm in the experiment on Phytophthora infestans is not below 80%. Also, in the experiment with Plasmopara viticola, the inhibition at 330 ppm was not below 80%.
On to `CCN(C)C(=O)c1ccc(-c2ccc(F)cc2)nc1-c1ccc(OC)c(OC)c1` [Compound 350], for which the inhibition at 1000 ppm in the experiment on Phytophthora infestans was not below 80%. Moreover, the inhibition at 330 ppm in the experiment on Plasmopara viticola was not below 80%.
For `C=CCN(C)C(=O)c1ccc(-c2ccccc2)nc1-c1ccc(OC)c(OC)c1` [Compound 359], in the experiment on Phytophthora infestans, the inhibition at 1000 ppm was not below 80%. The inhibition at 330 ppm with Plasmopara viticola is not below 80%.
For the molecule `CCN(C)C(=O)c1sc2ccccc2c1-c1ccc(OC)c(OC)c1` [Compound 150], in the experiment on Phytophthora infestans, the inhibition at 1000 ppm was not below 80%. The inhibition at 330 ppm in the experiment with Plasmopara viticola is not below 80%.
Regarding `COc1ccc(-c2cc(C=C(C)C)ccc2C(=O)N2CCOCC2)cc1OC` [Compound 235], in the experiment with Phytophthora infestans, the inhibition at 1000 ppm was not below 80%. Besides, the inhibition at 330 ppm in the experiment on Plasmopara viticola is not below 80%.
As for `CCN(C)C(=O)c1c(-c2ccc(OC)c(OC)c2)cc(-c2ccccc2)nc1C` [Compound 506], the inhibition at 1000 ppm in the experiment on Phytophthora infestans was not below 80%. Also, in the experiment on Plasmopara viticola, the inhibition at 330 ppm is not below 80%.
On to `C=C(C)c1ccc(C(=O)N2CCOCC2)c(-c2ccc(OC)c(OC)c2)c1` [Compound 236], for which the inhibition at 1000 ppm with Phytophthora infestans is not below 80%. Besides, the inhibition at 330 ppm in the experiment with Plasmopara viticola is not below 80%.
For `CCN(CC)C(=O)c1ccc(-c2ccc(Cl)cc2)nc1-c1ccc(OC)c(OC)c1` [Compound 364], the inhibition at 1000 ppm in the experiment with Phytophthora infestans is not below 80%. Besides, the inhibition at 330 ppm in the experiment on Plasmopara viticola was not below 80%.
Take `COc1ccc(-c2nc(Oc3ccc(C)cc3)ncc2C(=O)N2CCOCC2)cc1OC` [Compound 433, 4-(3,4-dimethoxyphenyl)-2-(4-methylphenoxy)-5-morpholinocarbonylpyrimidine]: the inhibition at 1000 ppm in the experiment on Phytophthora infestans was not below 80%. In addition, the inhibition at 330 ppm in the experiment with Plasmopara viticola was not below 80%.
With `CCN(C)C(=O)c1sc2ccc(F)cc2c1-c1ccc(OC)c(OC)c1` [Compound 167], in the experiment on Phytophthora infestans, the inhibition at 1000 ppm was not below 80%. Besides, in the experiment on Plasmopara viticola, the inhibition at 330 ppm is not below 80%.
On to `COCCN(C)C(=O)c1ccc(-c2ccc(Cl)cc2)nc1-c1ccc(OC)c(OC)c1` [Compound 379], for which the inhibition at 1000 ppm with Phytophthora infestans was not below 80%. For the same molecule, in the experiment with Plasmopara viticola, the inhibition at 330 ppm is not below 80%.
With `CCN(CC)C(=O)c1ccc(-c2ccccc2)nc1-c1ccc(OC)c(OC)c1` [Compound 388], the inhibition at 1000 ppm in the experiment on Phytophthora infestans was not below 80%. Besides, in the experiment with Plasmopara viticola, the inhibition at 330 ppm was not below 80%.
Turning to `COc1ccc(-c2cc(Cl)ccc2C(=O)N2CCOCC2)cc1OC` [Compound 208], the inhibition at 1000 ppm with Phytophthora infestans is not below 80%. Moreover, the inhibition at 330 ppm in the experiment on Plasmopara viticola was not below 80%.
As for `COc1ccc(-c2c(C(=O)N3CCOCC3)cc(-c3ccc(Cl)cc3)n2C)cc1OC` [Compound 619], the inhibition at 1000 ppm in the experiment on Phytophthora infestans was not below 80%. The inhibition at 330 ppm in the experiment with Plasmopara viticola is not below 80%.
For the molecule `CCN(CC)C(=O)c1ccc(Cl)cc1-c1ccc(OC)c(OC)c1` [Compound 211], the inhibition at 1000 ppm with Phytophthora infestans was not below 80%. Besides, the inhibition at 330 ppm in the experiment with Plasmopara viticola is not below 80%.
`COCCN(C)C(=O)c1sc2ccc(F)cc2c1-c1ccc(OC)c(OC)c1` [Compound 169]: in the experiment on Phytophthora infestans, the inhibition at 1000 ppm is not below 80%. Also, the inhibition at 330 ppm in the experiment with Plasmopara viticola is not below 80%.
Regarding `COc1ccc(-c2nc(SCc3ccccc3)ncc2C(=O)N2CCOCC2)cc1OC` [Compound 434], the inhibition at 1000 ppm in the experiment with Phytophthora infestans was not below 80%. For the same molecule, in the experiment on Plasmopara viticola, the inhibition at 330 ppm was not below 80%.
With `COCCN(C)C(=O)c1c(-c2ccc(OC)c(OC)c2)cc(-c2ccccc2)nc1C` [Compound 507], in the experiment with Phytophthora infestans, the inhibition at 1000 ppm was not below 80%. Besides, the inhibition at 330 ppm in the experiment with Plasmopara viticola is not below 80%.
Consider `COc1ccc(-c2cc(Br)ccc2C(=O)N2CCOCC2)cc1OC` [Compound 222], for which, in the experiment with Phytophthora infestans, the inhibition at 1000 ppm was not below 80%. The inhibition at 330 ppm with Plasmopara viticola is not below 80%.
Regarding `COc1ccc(-c2nc(-c3ccc(Cl)cc3)ccc2C(=O)N2CCOCC2)cc1OC` [Compound 345], in the experiment on Phytophthora infestans, the inhibition at 1000 ppm was not below 80%. The inhibition at 330 ppm in the experiment on Plasmopara viticola is not below 80%.
As for `COc1ccc(-c2c(C(=O)N3CCOCC3)sc3ccc(F)cc23)cc1OC` [Compound 117], the inhibition at 1000 ppm in the experiment with Phytophthora infestans was not below 80%. For the same molecule, the inhibition at 330 ppm in the experiment on Plasmopara viticola is not below 80%.
On to `COc1ccc2c(c1)CC(C(=O)N1CCOCC1)=C2c1ccc(OC)c(OC)c1` [Compound 111, 2-Morpholinocarbonyl-3-(3,,4-dimethoxyphenyl)-6-mehoxyindene], for which, in the experiment with Phytophthora infestans, the inhibition at 1000 ppm is not below 80%. Also, the inhibition at 330 ppm with Plasmopara viticola was not below 80%.
As for `COc1ccc(-c2cc(-c3ccsc3)ccc2C(=O)N2CCOCC2)cc1OC` [Compound 238], in the experiment on Phytophthora infestans, the inhibition at 1000 ppm was not below 80%. The inhibition at 330 ppm in the experiment with Plasmopara viticola was not below 80%.
As to `COc1ccc(-c2nc(-c3ccccc3)ccc2C(=O)N(C)C)cc1OC` [Compound 370], in the experiment with Phytophthora infestans, the inhibition at 1000 ppm is not below 80%. For the same molecule, the inhibition at 330 ppm in the experiment on Plasmopara viticola was not below 80%.
For `COc1ccc(-c2c(C(=O)N3CCOCC3)sc3ccc(C(F)(F)F)cc23)cc1OC` [Compound 133], the inhibition at 1000 ppm in the experiment with Phytophthora infestans was not below 80%. In addition, the inhibition at 330 ppm in the experiment with Plasmopara viticola was not below 80%.
On to `COc1ccc(-c2c(C(=O)N3CCOCC3)sc3ccc(Cl)cc23)cc1OC` [Compound 113], for which the inhibition at 1000 ppm in the experiment with Phytophthora infestans was not below 80%. Also, in the experiment on Plasmopara viticola, the inhibition at 330 ppm is not below 80%.
For `COc1ccc(-c2cc(-c3ccc(F)cc3)ccc2C(=O)N2CCOCC2)cc1OC` [Compound 201, 2-(3,4-Dimethoxyphenyl)-4-(4-fluorophenyl)-1-morpholinocarbonylbenzene], in the experiment on Phytophthora infestans, the inhibition at 1000 ppm is not below 80%. Further, the inhibition at 330 ppm in the experiment with Plasmopara viticola was not below 80%.
As to `COc1ccc(-c2nc(-c3ccccc3)ncc2C(=O)N2CCOCC2)cc1OC` [Compound 414], the inhibition at 1000 ppm in the experiment with Phytophthora infestans is not below 80%. Moreover, the inhibition at 330 ppm with Plasmopara viticola was not below 80%.
As to `COCCN(C)C(=O)c1cnc(-c2ccccc2)nc1-c1ccc(OC)c(OC)c1` [Compound 416], the inhibition at 1000 ppm with Phytophthora infestans is not below 80%. Also, the inhibition at 330 ppm with Plasmopara viticola is not below 80%.
For `CCN(C)C(=O)c1ccc(Br)cc1-c1ccc(OC)c(OC)c1` [Compound 206], the inhibition at 1000 ppm in the experiment with Phytophthora infestans is not below 80%. Besides, in the experiment with Plasmopara viticola, the inhibition at 330 ppm was not below 80%.
In the case of `COc1ccc(-c2nc(Oc3ccccc3C)ncc2C(=O)N2CCOCC2)cc1OC` [Compound 440], the inhibition at 1000 ppm with Phytophthora infestans was not below 80%. In addition, the inhibition at 330 ppm with Plasmopara viticola was not below 80%.

(Values after patent US5475132A, “Antifungal agents based on amides containing a phenyl group” (Rhone-Poulenc Agrochimie, priority 1988, dated 1995).)
